SMILES strings stand for the structures. In all, about 310,000 compounds went through this assay and about 14,000 (4.5%) showed an effect of 50% or more. The effect is printed as a negative number. The list shows a part of the results.
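Also: peak tail current of the secondary pulse compared with the same well before compound.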

The target of this assay is human ether-à-go-go-related gene (hERG) potassium channel (human, UniProt Q12809). Put plainly: primary screen, population patch clamp on CHO cells stably expressing hERG.
Chain of human ether-à-go-go-related gene (hERG) potassium channel (Q12809 whole entry, looked up): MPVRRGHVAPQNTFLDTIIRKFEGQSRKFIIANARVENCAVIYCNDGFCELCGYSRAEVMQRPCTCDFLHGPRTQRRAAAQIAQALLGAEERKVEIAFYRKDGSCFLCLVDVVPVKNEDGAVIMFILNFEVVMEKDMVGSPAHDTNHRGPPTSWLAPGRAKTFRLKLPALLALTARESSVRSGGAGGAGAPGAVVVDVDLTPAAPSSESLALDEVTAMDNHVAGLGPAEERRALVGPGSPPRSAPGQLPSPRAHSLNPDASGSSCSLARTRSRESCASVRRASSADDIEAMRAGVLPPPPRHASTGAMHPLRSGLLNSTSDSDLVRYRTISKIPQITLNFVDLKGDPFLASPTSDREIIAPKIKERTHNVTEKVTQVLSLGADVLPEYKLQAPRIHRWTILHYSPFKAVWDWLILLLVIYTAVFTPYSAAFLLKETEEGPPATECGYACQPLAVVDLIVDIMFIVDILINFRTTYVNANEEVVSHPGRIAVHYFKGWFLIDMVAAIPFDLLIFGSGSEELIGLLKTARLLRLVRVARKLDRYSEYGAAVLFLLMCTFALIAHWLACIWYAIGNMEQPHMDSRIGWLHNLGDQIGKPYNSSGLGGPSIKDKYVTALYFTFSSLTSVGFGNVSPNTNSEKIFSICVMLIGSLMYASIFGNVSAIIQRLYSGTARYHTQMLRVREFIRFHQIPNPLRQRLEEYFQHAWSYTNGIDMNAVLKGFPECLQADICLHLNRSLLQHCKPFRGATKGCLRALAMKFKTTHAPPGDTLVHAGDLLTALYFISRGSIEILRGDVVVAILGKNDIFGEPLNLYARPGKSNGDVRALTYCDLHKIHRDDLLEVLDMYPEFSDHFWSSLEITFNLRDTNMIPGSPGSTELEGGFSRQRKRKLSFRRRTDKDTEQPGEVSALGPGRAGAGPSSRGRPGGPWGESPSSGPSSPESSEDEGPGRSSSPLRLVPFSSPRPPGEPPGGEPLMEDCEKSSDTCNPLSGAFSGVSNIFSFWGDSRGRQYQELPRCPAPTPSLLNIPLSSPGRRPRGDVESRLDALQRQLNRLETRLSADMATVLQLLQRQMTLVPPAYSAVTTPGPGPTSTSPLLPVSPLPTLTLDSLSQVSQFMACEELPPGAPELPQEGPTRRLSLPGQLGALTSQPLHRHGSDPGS
As for `COc1ccccc1NS(=O)(=O)c1cc(NC(=O)C(C)(C)C)ccc1N1CCOCC1`, the “hERG current change (%, negative = inhibition) at 10uM” value is given as -36.4%.
Turning to `Cc1ccccc1NC(=O)COc1cccc2c1CCNC2=O`, the “hERG current change (%, negative = inhibition) at 10uM” value is listed as -3.93%.
As to `NC(=O)NC(=O)CSc1nc(C2CCCCC2)n(-c2ccccc2)n1`, the “hERG current change (%, negative = inhibition) at 10uM” value is on record as 18.7%.
As for `COc1cc(Cl)c(C)cc1NC(=O)CCCN1C(=O)CCC1=O`, the “hERG current change (%, negative = inhibition) at 10uM” value worked out at 2.41%.
For the compound `CCN(CC)c1nc2n(c(=O)n1)CCO2`, the “hERG current change (%, negative = inhibition) at 10uM” value is listed as 8.24%.
Consider `COc1ccc(-c2csc(NC(CO)c3nc4ccccc4n3Cc3ccc(C)cc3)n2)cc1` (centres unmarked), for which the “hERG current change (%, negative = inhibition) at 10uM” value was found to be 12.4%.
As for `Cc1ccc(NC(=O)c2ccc(NS(=O)(=O)/C=C/c3ccccc3)cc2)nc1`, the figure is 0.977%.
As for `CC(=O)NC(CC(=O)Oc1ccc(C)cc1Br)c1ccccc1` (centres unmarked), the figure is -14%.
For `Cc1ccnc(NS(=O)(=O)c2ccc(CC(C)C)cc2)c1` the value was 9.2%; for `COC(=O)c1cc(S(=O)(=O)N2c3ccccc3CC2C)c[nH]1` (centres unmarked), -12.3%.
On to `CCOc1ccc(C(=O)Oc2cc(C)[nH]c(=O)c2[N+](=O)[O-])cc1`, for which the “hERG current change (%, negative = inhibition) at 10uM” value amounted to 9.6%.
Turning to `Cc1ccc(Cl)cc1NC(=O)C(=O)N1CCCCC1`, the “hERG current change (%, negative = inhibition) at 10uM” value came out at 13.4%.
For the compound `COC(=O)c1ccccc1NC(=O)CN1CCC(n2nnc3cc(F)ccc32)CC1`, the “hERG current change (%, negative = inhibition) at 10uM” value was -14.3%.
As for `Cn1ccc(/C=N/N=C2/NC(=O)CS2)n1`, the figure is 5.65%; as for `CCCCC(=O)Nc1cccc(NC(=O)C(C)C)c1`, 13.8%.
For `CCC1CC(/C(C)=N/NC(N)=O)OC1=O` (centres unmarked) the value was 9.19%.
As for `CC(C)(C)c1nc(NCCN2CCOCC2)c2nnn(Cc3ccccc3Cl)c2n1`, the figure is 10.7%; as for `CC(C)CCN1C(=O)c2ccc(C(=O)N3CCCCC3)cc2C1=O`, -6.98%; as for `COc1ccc(S(=O)(=O)N2CCCC(C(=O)NCC3CCCO3)C2)cc1OC` (centres unmarked), 11%.
As to `CC1(C)CC(=O)C=C(Nc2ccc3c(c2)CCC3)C1`, the “hERG current change (%, negative = inhibition) at 10uM” value is -2.73%.
Take `C[C@H](NC(=O)[C@@H]1CSC2c3ccccc3C(=O)N21)C(=O)NC1CCCC1` (some centres unmarked): the “hERG current change (%, negative = inhibition) at 10uM” value was 10.5%.
For `CC1=C(C(=O)NCc2ccc(Cl)cc2)C2(CCC(C)CC2)OC1=O` (centres unmarked), the “hERG current change (%, negative = inhibition) at 10uM” value stood at 7.11%.
As for `CCc1nn(CC(=O)NCCN2CCN(C)CC2)c(=O)c2cc3occc3n12`, the figure is 2.39%; as for `CCOc1ccccc1/C=c1\sc2ncnn2c1=O`, -22.7%.
As for `Cc1ccc(NS(=O)(=O)c2ccc(C(=O)NCc3cccnc3)cc2)cc1`, the figure is -4.14%; as for `CC(C)(C)Cc1nc(-c2ccccn2)no1`, 4.02%.
Take `O=C(Nc1ncc([N+](=O)[O-])s1)c1cccc([N+](=O)[O-])c1`: the “hERG current change (%, negative = inhibition) at 10uM” value was 4.76%.
For `Cc1cccc(OCc2n[nH]c(=S)n2Cc2ccccc2)c1` the value was 11.8%.
As for `CCCCc1ccc(S(=O)(=O)N2CCC3(CC2)OCCO3)cc1`, the figure is -5.08%.
`COc1ccc(C2/C(=C(/O)c3ccc(Br)cc3)C(=O)C(=O)N2C)cc1OC` (centres unmarked): the “hERG current change (%, negative = inhibition) at 10uM” value turned out to be 7.56%.
As for `O=C(NCCc1c[nH]c2ccccc12)c1ccc([N+](=O)[O-])cc1`, the figure is -11.2%; as for `CC(=O)c1ccc(N2CCN(C(=S)Nc3ccc(Oc4ccccc4)cc3)CC2)cc1`, 1.84%.
In the case of `Clc1ccccc1OCCCCN1CCCCC1`, the “hERG current change (%, negative = inhibition) at 10uM” value is -8.1%.
For `CCCCCN(C(=O)NC(=O)Nc1ccccc1C)S(=O)(=O)c1ccccc1` the value was 19.1%; for `COC(=O)c1ccc(OC)c(OC)c1Cl`, 4.66%.
For `O=C(NCC1CCCO1)c1onc(CSc2cccc3ccccc23)c1C(=O)O` (centres unmarked) the value was 14.4%.
For `COc1ccccc1NC1=Nc2cccc3cccc1c23` the value was -10.6%.
Regarding `CC(=C/C(=O)O)/C(=C/c1ccccc1)C(=O)O`, the “hERG current change (%, negative = inhibition) at 10uM” value turned out to be 15.6%.
In the case of `NC(=O)c1nsc(C(=O)N(CC(=O)NC2CCCC2)c2cnc3ccccc3c2)c1N`, the “hERG current change (%, negative = inhibition) at 10uM” value was -4.05%.
For the compound `CCN1C(=O)/C(=C/c2cccs2)N(C)C1=S`, the “hERG current change (%, negative = inhibition) at 10uM” value is recorded as -7.99%.
As for `COc1ccc(C(CNC(=O)c2cccc(S(=O)(=O)NCc3ccccc3)c2)N(C)C)cc1` (centres unmarked), the figure is -24.3%; as for `CC(=O)c1ccc(N2CCN(C(=O)CCCn3c(=S)[nH]c4cc5c(cc4c3=O)OCO5)CC2)cc1`, 3.87%; as for `CCOc1cc(C(=O)NC(C)C2CCCO2)cc(OCC)c1OCC` (centres unmarked), 10.7%.
As for `O=C(Nc1nccs1)[C@@H]1CCCN1C(=O)c1cccs1`, the figure is 4.23%.
As for `O=C(/C=C/c1cccnc1)c1ccc(NC(=O)c2cccc(Br)c2)cc1`, the figure is -13.8%; as for `Cc1ccc(C(C)C)c(OCc2ccc(C(=O)N/N=C/c3ccc(C(=O)O)cc3)cc2)c1`, 5.45%; as for `O=C(Cn1cc([N+](=O)[O-])ccc1=O)NC1CCCCC1`, -0.552%.
Consider `O=c1c2nccnc2[nH]c(=S)n1Cc1ccccc1Cl`, for which the “hERG current change (%, negative = inhibition) at 10uM” value turned out to be 30.6%.
For `CC1(C)CSC(=NCc2ccccc2)N1C(=O)c1cccc([N+](=O)[O-])c1`, the “hERG current change (%, negative = inhibition) at 10uM” value was -19.2%.
For the compound `CC(NC(=O)CN1C(=O)NC2(CCc3ccccc32)C1=O)c1ccc2c(c1)OCCO2` (centres unmarked), the “hERG current change (%, negative = inhibition) at 10uM” value is on record as 10.8%.
As for `CCOc1ccc(Nc2oc(-c3ccccc3Cl)nc2C#N)cc1`, the figure is 5.77%; as for `CC(OC(=O)CN1C(=O)c2ccccc2C1=O)C(=O)NC1(C#N)CCCCC1` (centres unmarked), 0.311%; as for `CC1CCCN(C(=O)C2COc3ccccc3O2)C1` (centres unmarked), 13.2%.
As for `C/C(=N\N=C1\NC(=O)C(CC(=O)O)S1)c1ccccn1` (centres unmarked), the figure is 5.04%.
As for `O=[N+]([O-])c1ccc(Nc2nc(NCCO)nc(N3CCCC3)n2)cc1`, the figure is -58.3%; as for `Cl.ClCC1=Nc2cccc3cccc(c23)N1`, -4.42%.
As to `COc1cc(C(=O)O)cc(Br)c1OC1CCCC1`, the “hERG current change (%, negative = inhibition) at 10uM” value amounted to 20.6%.
As for `COc1ccc(C2C(C(=O)O)CC(=O)N2c2ccc(OC)cc2)cc1` (centres unmarked), the figure is 10.9%; as for `CCSc1nc(C)c(CC)c(C)c1C(N)=O`, 7.33%.
On to `CN(Cc1ccon1)C(=O)CC1C(=O)NCCN1Cc1cccc(F)c1F` (centres unmarked), for which the “hERG current change (%, negative = inhibition) at 10uM” value came to 1.83%.
For the compound `CCOC(=O)c1sc(NC(=O)Nc2ccc(Cl)cc2)cc1C`, the “hERG current change (%, negative = inhibition) at 10uM” value is given as 22.5%.
Take `COc1ccc(NC(=O)C(c2ccc(OC)cc2)N(Cc2ccco2)C(=O)CC2NC(=O)NC2=O)cc1` (centres unmarked): the “hERG current change (%, negative = inhibition) at 10uM” value is given as -5.09%.
Consider `CCN(CC(=O)Nc1c(F)cccc1F)C(=O)CCc1ccc(OC)cc1`, for which the “hERG current change (%, negative = inhibition) at 10uM” value is reported as 24.6%.
Regarding `COc1ccc(N(C)S(=O)(=O)c2cccc(C(=O)OC(C(=O)Nc3cc(C)cc(C)c3)c3ccccc3)c2)cc1` (centres unmarked), the “hERG current change (%, negative = inhibition) at 10uM” value came out at 18.9%.
Turning to `O=C(CN1CCCCC1)Nc1nc(-c2ccc(F)c(F)c2)cs1`, the “hERG current change (%, negative = inhibition) at 10uM” value was -15.1%.
For the compound `O=C(Nc1nnc(S(=O)(=O)N2CCCCC2)s1)c1ccccc1Br`, the “hERG current change (%, negative = inhibition) at 10uM” value came to 9.3%.
For the compound `Cc1c(NS(=O)(=O)c2ccc(NCCN3CCOCC3)c([N+](=O)[O-])c2)c(=O)n(-c2ccccc2)n1C`, the “hERG current change (%, negative = inhibition) at 10uM” value was found to be 7.45%.
As for `O=c1[nH]c(-c2ccc(O)cc2)nc2scc(-c3cccs3)c12`, the figure is 15.8%; as for `NC(=O)NC(CC(=O)NCCc1ccc(S(N)(=O)=O)cc1)c1ccccc1Cl` (centres unmarked), 6.81%; as for `Cc1ncsc1C(=O)Nc1cccc(C(F)(F)F)c1`, -7.72%.
For `C[C@H](NC(=O)c1ccccc1)C(=O)N1CCN(c2ccccc2)CC1` the value was -2.4%; for `C=C1C(=O)[C@@]23[C@H](O)C[C@@H]4C(C)(C)CC[C@H](O)[C@@]4(C)[C@@H]2CC[C@@H]1[C@H]3O`, -9.9%.
For `Cc1cccc(NC(=O)Nc2cccc(C#N)c2)n1` the value was -10.9%; for `O=C(CN(Cc1ccccc1Cl)C(=O)c1csnn1)NCc1ccccc1`, -24%; for `Cc1cccc(C(=O)Nc2cc(=O)n(C)c(=O)n2C)c1`, 15.6%.
`O=C(NCCSc1ccccc1)c1cncc(Br)c1`: the “hERG current change (%, negative = inhibition) at 10uM” value is reported as -0.151%.
On to `COc1cc(-c2n[nH]c(=S)n2/N=C/c2cccn2C)cc(OC)c1OC`, for which the “hERG current change (%, negative = inhibition) at 10uM” value is recorded as 3.01%.
As for `COc1ccc(S(=O)(=O)c2ccccc2)cc1NS(=O)(=O)c1cccc(C(=O)O)c1`, the figure is -6.71%; as for `Cc1cc(Br)cc(C)c1NC(=O)c1ccccc1[N+](=O)[O-]`, 14.3%; as for `COc1ccc(N2CC(NS(=O)(=O)c3cccs3)CC2=O)cc1OC` (centres unmarked), 3.82%.
In the case of `Cc1ccc(Cl)cc1N1CCN(C(=O)c2cc3c(=O)n(C)c4ccccc4c3n2C)CC1`, the “hERG current change (%, negative = inhibition) at 10uM” value was found to be 4.48%.
As for `COC(=O)c1[nH]c2cccc(Cl)c2c1NC(=O)CN(C)C1CCCCC1`, the figure is -12.3%; as for `O=C(Nc1cccc(-n2cnnn2)c1)C1CCCN(Cc2cccc(C(F)(F)F)c2)C1` (centres unmarked), -59.8%.
As for `COCCn1nnnc1C(c1cc2ccc(OC)cc2[nH]c1=O)N1CCc2ccccc2C1` (centres unmarked), the figure is -42.4%; as for `Cc1cccc(NC(=S)NC(=O)/C=C/c2ccco2)n1`, 8.29%; as for `CCN(C(=O)COC(=O)c1nc2nc(C)cc(C)n2n1)C1CCCCC1`, 3.77%.
For `Cc1cccc(N=Nc2c(C)[nH]n(-c3ccccc3)c2=O)c1` the value was 12.2%; for `O=C(NC1CCCC1)c1cc(-c2ccc(F)cc2)on1`, -4.51%.
Turning to `O=C(NCCc1ccc(Cl)cc1)c1ccc(CS(=O)Cc2ccccc2Cl)o1` (centres unmarked), the “hERG current change (%, negative = inhibition) at 10uM” value was -30%.

The record behind these values is publication PMC4336329 (PLoS ONE, 2015).
